54 molecules from ChEMBL document CHEMBL4888484, “Replenishing the malaria drug discovery pipeline: Screening and hit evaluation of the MMV Hit Generation Library 1 (HGL1) against asexual blood stage Plasmodium falciparum ,using a nano luciferase reporter read-out” (2022) can be followed below.

Screen size: about 150,000 compounds; about 540 (0.36%) showed an effect of 50% or more. The list shows a part of the results.

For the assay, the system named is Plasmodium falciparum. Briefly: Primary screen in NF54 nanoGlo assay, in single point, at 2uM, 72h; a lower Z score goes with more inhibition. To be noted: timepoint 72 hour. Type of assay: functional, Erythrocyte.
The % Inhibition is the drop in the measured response relative to a control, in per cent. In the case of `O=C(Cc1ccsc1)Nc1cc(C2CCCCC2)[nH]n1`, the “% Inhibition” value is reported as -4% and the Z score stood at 0.57.

As to `COCn1nccc1S(=O)(=O)NC(C)(C)C(=O)OC`, the “% Inhibition” value was found to be 0% and the Z score is on record as 0.04.

For `CCOc1cccc(CCc2nc(C3CCNCC3)no2)c1`, the “% Inhibition” value was -1% and the Z score was found to be 0.14.

As for `O=S(=O)(CC1CCCO1)N1CCOC(c2nccs2)C1` (stereo not drawn), the “% Inhibition” value is listed as -10% and the Z score is listed as 1.11.

For the molecule `Clc1cc(Cn2nnc(C3CC3)n2)cc2c1OCCO2`, the “% Inhibition” value was -8% and the Z score came to 1.16.

As to `COc1ccc(-n2nc(N3CCN(C(=O)c4cccc(OC)c4)CC3)ccc2=O)cc1`, the “% Inhibition” value stood at 9% and the Z score is -1.1.

Take `CCc1cc(NC(=O)c2ccco2)nc(C)n1`: the “% Inhibition” value is listed as -2% and the Z score was 0.24.

Take `CCN1CC(=O)N[C@H]2CN(C(=O)c3ccc(N(C)C)nc3)CC[C@@H]2OCc2cccc(c2)Oc2cccc(c2)CC1=O`: the “% Inhibition” value is 12% and the Z score is listed as -1.64.

Take `C[C@@H](CNc1nnc(C(C)(C)C)o1)Oc1cccnc1`: the “% Inhibition” value is recorded as -14% and the Z score is reported as 1.8.

On to `COc1ccccc1C1(CNC(=O)N2CCC[C@H]2c2cnn(C)c2)CCC1`, for which the “% Inhibition” value stood at 2% and the Z score was -0.26.

On to `CC1(CNC(C(N)=O)c2cccc(Br)c2)CCCO1` (stereo not drawn), for which the “% Inhibition” value is on record as -13% and the Z score is on record as 1.5.

Regarding `COc1ccccc1C(C)CC(=O)C(C#N)C(=O)NC1CCCC1` (stereo not drawn), the “% Inhibition” value was -6% and the Z score is recorded as 0.58.

`CO[C@@H]1C[C@@H](c2ncn[nH]2)N(Cc2ccc(-n3ccnc3)cc2C)C1`: the “% Inhibition” value turned out to be 4% and the Z score is recorded as -0.56.

For the molecule `Cc1ccc(O)c(NC(=O)c2cnn3c2C[C@@H](C)CC3)n1`, the “% Inhibition” value was -16% and the Z score is reported as 2.42.

For the molecule `COc1ccc(F)c(CN(C)CCc2ccncc2)c1`, the “% Inhibition” value was 13% and the Z score is reported as -1.6.

For `Cc1nc(CN2CCOc3cc(Br)c(Cl)cc32)oc1C`, the “% Inhibition” value is -6% and the Z score was determined as 0.83.

Consider `COc1ccc(-c2cc(C(=O)N3CC[C@H](c4nc(C)no4)C3)[nH]n2)cc1`, for which the “% Inhibition” value is recorded as -20% and the Z score is given as 2.36.

In the case of `COCCNS(=O)(=O)c1cc(C(=O)N2CCCC2)cs1`, the “% Inhibition” value was -6% and the Z score is recorded as 0.62.

Take `CCc1nc2cc(C(=O)NCC3CCN(CCO)CC3)cc(NC(=O)c3ccccc3OC)c2n1C`: the “% Inhibition” value is reported as -3% and the Z score is 0.39.

On to `N#Cc1c2n(c(=O)n(Cc3noc(-c4ccco4)n3)c1=O)CCC2`, for which the “% Inhibition” value is -9% and the Z score came to 1.3.

As to `O=C(NCc1cc(Cl)ccc1Cl)N1CCC(O)(CN2CCCC2)CC1`, the “% Inhibition” value was -12% and the Z score is listed as 1.26.

As for `CN1C[C@@H](CN(C)C(=O)NCc2ccc3sccc3c2)CC1=O`, the “% Inhibition” value is recorded as -4% and the Z score is recorded as 0.63.

`Cc1nc([C@H](C)NC(=O)Cc2c(C)noc2C)n[nH]1`: the “% Inhibition” value is listed as -12% and the Z score was found to be 1.2.

Consider `CCn1nc(C)c(-c2cc(C(=O)N3CC4(C3)C[C@@](O)(CC)CO4)no2)c1C`, for which the “% Inhibition” value was -12% and the Z score is listed as 1.81.

Regarding `Cc1nn(-c2ccccc2)c2sc(-c3noc(C4CC4)n3)cc12`, the “% Inhibition” value came to 14% and the Z score was -1.59.

In the case of `N#Cc1nccnc1NCCNc1ncc(Cl)cc1Cl`, the “% Inhibition” value is -10% and the Z score was 1.59.

Consider `Cc1nn(C)c2cc(NC(=O)N3CCOCC3C3CCCO3)ccc12` (stereo not drawn), for which the “% Inhibition” value was -11% and the Z score worked out at 1.24.

Turning to `CS(=O)(=O)c1ccc(-c2noc(C3CC4CCC3C4)n2)cc1` (stereo not drawn), the “% Inhibition” value turned out to be 0% and the Z score was found to be 0.06.

Turning to `N#Cc1c(N)c(C(=O)c2ccc(F)cc2)n2c1CCCC2`, the “% Inhibition” value is listed as -4% and the Z score was found to be 0.76.

As to `CCOC(=O)C1CCN(C(=O)Nc2ccc(NC(=O)N3CCC(C(=O)OCC)CC3)cc2)CC1`, the “% Inhibition” value is 44% and the Z score is recorded as -5.67.

Turning to `Cc1noc2ncnc(NC[C@H](C)Oc3cccc(F)c3)c12`, the “% Inhibition” value is 0% and the Z score is reported as 0.07.

Take `CCCc1nc(N2CCN(C(=O)c3ccccc3OC)CC2)c2c(-c3cccc(C(F)(F)F)c3)noc2n1`: the “% Inhibition” value was -1% and the Z score was determined as 0.19.

For `COc1ccc(CN(C(=O)C2CCC2)C2CCCC2)cc1OC(C)C`, the “% Inhibition” value is reported as -5% and the Z score was determined as 1.06.

On to `CCCCNC(=O)C(=O)NCc1ccc(OC)cc1`, for which the “% Inhibition” value was -6% and the Z score is 0.75.

Consider `c1nc([C@H]2CCCNC2)n(-c2ccc3c(c2)CCC3)n1`, for which the “% Inhibition” value is recorded as -11% and the Z score is reported as 1.36.

In the case of `Cc1ccc(NC2CCN(C)CC2)cc1NC(=O)CCCOc1ccccc1F`, the “% Inhibition” value was -8% and the Z score turned out to be 0.99.

Regarding `Cc1cccc([C@H]2CCCN(C(=O)NCc3cn4cccc(C)c4n3)C2)c1`, the “% Inhibition” value was found to be 10% and the Z score is recorded as -1.32.

For the molecule `O=C(Nc1ccc2c(c1)OCCCO2)c1ccoc1`, the “% Inhibition” value is given as -10% and the Z score is 1.13.

For `Cc1ncsc1C(=O)N1CCC(c2ncon2)CC1`, the “% Inhibition” value is on record as -6% and the Z score is given as 0.96.

For `Cc1ccc(NC(=O)Cn2c(C)cc(=O)n3nc(-c4ccccc4C)nc23)cc1C`, the “% Inhibition” value is given as -10% and the Z score is recorded as 1.28.

Take `c1ccc2c(N3CCN(C[C@H]4CCOC4)CC3)nncc2c1`: the “% Inhibition” value was -5% and the Z score came out at 0.91.

As to `CCOc1nnc(Cn2cnc3c2c(=O)n(C)c(=O)n3C)s1`, the “% Inhibition” value was -13% and the Z score was 2.15.

With `O=C(Cc1cccnc1)NCc1cc(N2CCOCC2)ncn1`, the “% Inhibition” value was found to be 4% and the Z score is -0.76.

`Cn1cnnc1CCC(=O)N[C@@H]1[C@H]2CCO[C@H]2[C@H]1Cc1ccccc1`: the “% Inhibition” value was -5% and the Z score was determined as 0.84.

For `COCCCN1CC(=O)N[C@@H]2CN(C(=O)c3ccc(F)c(O)c3)CC[C@@H]2OCc2cccc(c2)Oc2ccc(cc2OC)CCC1=O`, the “% Inhibition” value is recorded as 2% and the Z score was -0.41.

Take `CC(=O)c1cccc(Oc2nc3ccccc3o2)c1`: the “% Inhibition” value is given as -3% and the Z score came out at 0.53.

In the case of `CCc1nc([C@H](N)CO)n(-c2ccc3ccccc3c2)n1`, the “% Inhibition” value was -11% and the Z score was 1.47.

As for `O=C(OCC(=O)N1CCCc2ccccc21)c1nccc2ccccc12`, the “% Inhibition” value came out at 35% and the Z score is reported as -4.68.

`O=C(C1CCCO1)N1CCCC2CCCC21` (stereo not drawn): the “% Inhibition” value was -7% and the Z score is on record as 1.03.

Consider `CCCC(CCC)N1CCC[C@H](c2nnc(CN3CCOCC3)n2C)C1`, for which the “% Inhibition” value was -13% and the Z score amounted to 1.51.

Take `O=S1(=O)C=C[C@@H](N(c2ccccc2)S(=O)(=O)c2ccc(Cl)cc2)C1`: the “% Inhibition” value worked out at 5% and the Z score is given as -0.61.

In the case of `O=C(NC[C@H]1CCN(CCN2CCOCC2)C1)Nc1cccnc1`, the “% Inhibition” value is -1% and the Z score was found to be 0.27.

With `Nc1c2c(-c3ccccc3)nc(NCc3ccc(F)cc3)nc2nn1-c1ccc(Cl)cc1`, the “% Inhibition” value is -11% and the Z score is 1.21.

As to `O=C1CCC(=O)N1OCCOc1ccccc1`, the “% Inhibition” value was -13% and the Z score amounted to 1.59.
